The chains are these.
T1: human IL-15R beta-His (human, UniProt P14784 27-240)
T1 construct: also called human IL-2Rβ; IL-15Rβ; not shown: His tag
T1 sequence (looked up): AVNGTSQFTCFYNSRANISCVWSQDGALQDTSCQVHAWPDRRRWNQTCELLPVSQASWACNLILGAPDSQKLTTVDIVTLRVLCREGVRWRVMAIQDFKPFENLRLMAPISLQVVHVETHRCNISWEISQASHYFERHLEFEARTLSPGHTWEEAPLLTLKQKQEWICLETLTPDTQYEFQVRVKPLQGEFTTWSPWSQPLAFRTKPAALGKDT

B1: IL-15 mutein 1 (A23L), Avi-tagged (ligand)
chain: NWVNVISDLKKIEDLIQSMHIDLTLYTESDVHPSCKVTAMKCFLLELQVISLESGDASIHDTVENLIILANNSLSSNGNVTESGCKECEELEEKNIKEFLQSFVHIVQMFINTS
notes: Tested as crude HEK293 supernatant; the entry already carries A23L; also called m1; not shown: Avi tag
B2: IL-15 mutein 5 (D61E), Avi-tagged (ligand)
chain: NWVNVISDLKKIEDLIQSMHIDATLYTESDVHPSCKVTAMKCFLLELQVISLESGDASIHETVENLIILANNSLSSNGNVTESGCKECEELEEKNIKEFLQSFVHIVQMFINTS
notes: Tested as crude HEK293 supernatant; the entry already carries D61E; also called m5; not shown: Avi tag
B3: IL-15 mutein 6 (T62G), Avi-tagged (ligand)
chain: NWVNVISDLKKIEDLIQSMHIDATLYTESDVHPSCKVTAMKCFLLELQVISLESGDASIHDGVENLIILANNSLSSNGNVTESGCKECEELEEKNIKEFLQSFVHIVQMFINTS
notes: Tested as crude HEK293 supernatant; the entry already carries T62G; also called m6; not shown: Avi tag
B4: IL-15 mutein 4 (D8E), Avi-tagged (ligand)
chain: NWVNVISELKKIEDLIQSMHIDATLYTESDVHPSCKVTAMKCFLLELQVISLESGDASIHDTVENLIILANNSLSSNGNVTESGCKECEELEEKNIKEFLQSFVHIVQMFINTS
notes: Tested as crude HEK293 supernatant; the entry already carries D8E; also called m4; not shown: Avi tag
B5: IL-15 mutein 7 (T62I), Avi-tagged (ligand)
chain: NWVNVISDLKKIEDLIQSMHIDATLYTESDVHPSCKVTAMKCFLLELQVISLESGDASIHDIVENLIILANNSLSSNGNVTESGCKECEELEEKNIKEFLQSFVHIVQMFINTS
notes: Tested as crude HEK293 supernatant; the entry already carries T62I; also called m7; not shown: Avi tag
B6: IL-15 mutein 3 (Y26G), Avi-tagged (ligand)
chain: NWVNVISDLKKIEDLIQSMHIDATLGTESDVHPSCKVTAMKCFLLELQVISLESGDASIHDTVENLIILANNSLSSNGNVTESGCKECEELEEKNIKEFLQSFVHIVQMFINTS
notes: Tested as crude HEK293 supernatant; the entry already carries Y26G; also called m3; not shown: Avi tag
B7: IL-15 mutein 2 (L25E), Avi-tagged (ligand)
chain: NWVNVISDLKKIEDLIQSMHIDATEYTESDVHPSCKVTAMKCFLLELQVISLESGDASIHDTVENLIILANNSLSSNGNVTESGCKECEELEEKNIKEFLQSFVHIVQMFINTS
notes: Tested as crude HEK293 supernatant; the entry already carries L25E; also called m2; not shown: Avi tag

For orientation: Kd means the constant that tells how readily two partners part at equilibrium. A low value points to tighter binding. In general, koff refers to the rate constant with which the complex falls apart. A higher koff goes with fast dissociation. As usually defined, the kon is a measure of how fast the partners come together. A higher kon goes with fast association.

One assay has as its target T2, human IL-15R alpha-His (human, UniProt Q13261 31-205, limits assumed).
T2 construct: also called human IL-15Rα protein; IL-15Rα; not shown: His tag
T2 sequence (Q13261 31-205 limits assumed): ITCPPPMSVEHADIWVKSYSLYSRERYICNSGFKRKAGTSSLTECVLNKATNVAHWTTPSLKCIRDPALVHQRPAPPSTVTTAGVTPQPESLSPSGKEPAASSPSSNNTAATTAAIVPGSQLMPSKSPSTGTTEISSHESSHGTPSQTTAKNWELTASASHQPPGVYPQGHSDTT
Nature of the assay: SPR, Biacore T200; Avi-tagged IL-15 captured via anti-Avi, receptor as analyte; 1:1 fit. The procedure:
(§1) Briefly, HEK293 cells were pelleted and the crude IL-15 mutein supernatants were used for affinity measurement by Surface Plasmon Resonance (SPR). The experiment was performed on a Biacore T200 SPR biosensor (GE Healthcare) at room temperature. The anti-Avi tag sensor chips were prepared at 25° C. with a running buffer of 10 mM HEPES, 150 mM NaCl, 3 mM EDTA, and 0.005% (v/v) Tween-20, pH 7.4. All surfaces of a Biacore CM5 sensor chip were activated with a 1:1 (v/v) mixture of 400 mM EDC and 100 mM NHS for 7 minutes, at a flow rate of 10 μL/min. An anti-Avi reagent (Genscript, Cat. No: A00674-200) was diluted to 30 μg/mL in 10 mM sodium acetate (pH 5.0) and injected on all flow cells for 7 minutes at 10 μL/min. All flow cells were blocked with 1 M Ethanolamine-HCl, pH 8.5 for 7 minutes at 10 μL/min.
(§2) Avi-tagged IL-15 muteins were captured on flow cells 2, 3 and 4 at a flow rate of 10 μL/min for 30 seconds. The flow cell 1 was used as a reference surface. Following capture of IL-15 muteins, analytes (human IL-15Rα protein concentration ranging from 0.15625 nM to 1280 nM or human IL-2Rβ concentration ranging from 0.625 nM to 1280 nM) was injected at a flow rate of 30 μL/min in all flow cells for 100 seconds. After each analyte injection, dissociation was monitored for 600 seconds (i.e., human IL-15Rα protein as analyte) or 300 seconds (i.e., human IL-2Rβ protein as analyte), followed by regeneration of all flow cells with three 15-second injections of 10 mM Glycine-HCl, pH2.0. Sensorgrams of buffer cycles were collected for double-referencing purposes (see, e.g., Myszka DG. 1999. Journal of molecular recognition 12: 279-284). For kinetic analysis, the double-referenced sensorgrams were fit globally to a simple 1:1 Langmuir binding model using Biacore T200 Evaluation Software version 3.0.
(In general: Surface plasmon resonance follows binding to a sensor surface in real time, without labels.)
As for B1, the “Affinity change (muteins/WT)” value is ~0.14 ratio (muteins/WT), the Kd was less than 0.0017 nM, the koff came to 1.7e-05 s⁻¹ and the on-rate (kon) is more than 1e+07 M⁻¹ s⁻¹.
Turning to B2, the “Binding Level” value came to 37.2, the Kd was less than 0.01 nM, the koff is 0.0001 s⁻¹ and the kon was more than 1e+07 M⁻¹ s⁻¹.
Turning to B3, the “Binding Level” value stood at 20.7, the Kd was less than 0.0083 nM, the koff worked out at 8.3e-05 s⁻¹ and the kon is more than 1e+07 M⁻¹ s⁻¹.
B4: the “Affinity change (muteins/WT)” value was ~0.25 ratio (muteins/WT), the “Binding Level” value came to 25.3, the Kd was less than 0.003 nM and the koff worked out at 3e-05 s⁻¹. The kon is more than 1e+07 M⁻¹ s⁻¹.
Regarding B5, the “Affinity change (muteins/WT)” value was ~0.35 ratio (muteins/WT), the “Binding Level” value is 33.2, the Kd was less than 0.0042 nM and the koff is 4.2e-05 s⁻¹. The kon is more than 1e+07 M⁻¹ s⁻¹.
For the molecule B6, the “Affinity change (muteins/WT)” value is ~2830 ratio (muteins/WT), the “Binding Level” value was 24.6, the Kd was found to be 34 nM and the koff came out at 0.1 s⁻¹. This molecule returned a kon of 3e+06 M⁻¹ s⁻¹.
For B7 the same measures were ~583 ratio (muteins/WT), 63.8, 7 nM, 0.00023 s⁻¹ and 32000 M⁻¹ s⁻¹.

In the next assay the target is T1, human IL-15R beta-His. The description is as above. The procedure:
as §1, §2
As to B1, the “Affinity change (muteins/WT)” value is 0.8 ratio (muteins/WT), the “Binding Level” value turned out to be 50.3, binding was put at a Kd of 8.3 nM and the koff turned out to be 0.008 s⁻¹. The same molecule displayed a kon of 970000 M⁻¹ s⁻¹.
For B2 the same measures were 0.3 ratio (muteins/WT), 30.9, 3.1 nM, 0.0021 s⁻¹ and 670000 M⁻¹ s⁻¹.
On the same counts, the results for B3 are 14.4 ratio (muteins/WT), 14.2, 150 nM, 0.082 s⁻¹ and 560000 M⁻¹ s⁻¹.
On to B4, for which the “Affinity change (muteins/WT)” value was 20 ratio (muteins/WT), the “Binding Level” value stood at 3.6, the Kd worked out at 200 nM and the koff came to 0.0017 s⁻¹. The molecule also yielded a kon of 8400 M⁻¹ s⁻¹.
On the same counts, the results for B5 are > 67 ratio (muteins/WT), 22.2, more than 670 nM, more than 0.1 s⁻¹ and 160000 M⁻¹ s⁻¹.
On the same counts, the results for B6 are 8.5 ratio (muteins/WT), 46.2, 86 nM, 0.0074 s⁻¹ and 86000 M⁻¹ s⁻¹.
For B7 the same measures were 286 ratio (muteins/WT), 5.3, 2900 nM, 0.077 s⁻¹ and 27000 M⁻¹ s⁻¹.
